Results as given in ChEMBL document CHEMBL4888484, “Replenishing the malaria drug discovery pipeline: Screening and hit evaluation of the MMV Hit Generation Library 1 (HGL1) against asexual blood stage Plasmodium falciparum ,using a nano luciferase reporter read-out” (2022).
The whole screen tested about 150,000 compounds, of which about 540 (0.36%) showed an effect of 50% or more. The list shows a part of the results.

The compounds below were run on Plasmodium falciparum (assay: Primary screen in NF54 nanoGlo assay, in single point, at 2uM, 72h; a lower Z score goes with more inhibition). Conditions: timepoint 72 hour.
Assay type: functional, Erythrocyte
`O=C(c1cc(OCC(F)F)ccn1)N1CCC12COC2` was tested, and the “% Inhibition” value was -11% and the Z score was 1.69.
For `CCC(Oc1ccc2c(c1)C(c1cccc(C)c1)N(C(C)=O)CC2)C(=O)NCc1ccccc1` (centres undefined), the “% Inhibition” value was -12% and the Z score was 1.36.
For `CCn1nc(C)c(CN/C(=N\c2cccc(C)c2)NC(=O)c2ccccc2F)c1C`, the “% Inhibition” value was -16% and the Z score was 2.66.
For `Cc1nn(-c2cccc(F)c2)c2nc3c(c(N)c12)C(=O)CCC3`, the “% Inhibition” value was 25% and the Z score was -3.23.
`CCOc1ccc(-n2nnnc2CNS(=O)(=O)c2ccc3ccccc3c2)cc1` was tested, and the “% Inhibition” value was 17% and the Z score was -2.21.
`COc1ccc(C(=O)Nc2nnc(Cc3nc4ccccc4s3)s2)cc1Br` was tested, and the “% Inhibition” value was 8% and the Z score was -0.96.
For `C[C@@H](c1ccccn1)N(C)Cc1cc(CN2CCCCC2)cs1`, the “% Inhibition” value was 15% and the Z score was -2.69.
`CC(C)Cc1noc(CN(C)Cc2coc(C(C)C)n2)n1` was tested, and the “% Inhibition” value was -6% and the Z score was 0.79.
`CC(=O)N1CC[C@H]2CN(CCc3ccccc3)C[C@@]2(c2nc(C)no2)C1` was tested, and the “% Inhibition” value was 3% and the Z score was -0.42.
`CC[C@H](NC(=O)c1ccnc2[nH]cnc12)C(=O)OC` was tested, and the “% Inhibition” value was -12% and the Z score was 2.21.
For `CCNc1ccnc(N2C[C@H](C3CC3)[C@@H](N(C)C)C2)n1`, the “% Inhibition” value was -10% and the Z score was 1.85.
For `O=C1[C@@H]2C[C@@H](O)CN2C2(CN(Cc3ccncc3)C2)C(=O)N1Cc1ccccc1`, the “% Inhibition” value was -1% and the Z score was 0.11.
In the case of `CC(C)(C)CS(=O)(=O)NC(=O)Cc1c(F)cccc1F`, the “% Inhibition” value is reported as -9% and the Z score is reported as 1.42.
`CCN(CC)C(=O)[C@H](C)NC(=O)c1ccoc1` was tested, and the “% Inhibition” value was -11% and the Z score was 1.77.
In the case of `Cc1ccc(CCC(=O)N(C)c2cccnc2N2CCCC2)s1`, the “% Inhibition” value is reported as 8% and the Z score is reported as -1.3.
In the case of `CCOC(=O)Cc1csc(NC(=O)Cc2c[nH]c3ccccc23)n1`, the “% Inhibition” value is reported as 33% and the Z score is reported as -4.46.
In the case of `O=C(c1cnn2ccncc12)N1CCCC2(CCCCC2)CC1`, the “% Inhibition” value is reported as -11% and the Z score is reported as 1.48.
For `O=C(CCc1ccccn1)Nc1c(F)cccc1NC1CC1`, the “% Inhibition” value was 5% and the Z score was -0.74.
In the case of `CN(Cc1ccco1)C(=O)CN1C[C@H](F)C[C@H]1C(N)=O`, the “% Inhibition” value is reported as -4% and the Z score is reported as 0.64.
In the case of `C[C@H](NC(=O)c1ccc(CN2C(=O)CNC2=O)cc1)c1ccc(F)cc1F`, the “% Inhibition” value is reported as -15% and the Z score is reported as 2.65.
With `Cc1cc(C(=O)NCC2CCCC(O)C2)nc(-c2ccc(Cl)cc2)n1` (centres undefined) the “% Inhibition” value was -15% and the Z score was 1.93.
In the case of `CCOC(=O)N1CCN(C(=O)c2cc(-c3ccccc3F)nc3cc(-c4ccccc4)nn23)CC1`, the “% Inhibition” value is reported as -5% and the Z score is reported as 0.8.
`O=C(NC1CCCCCC1)N1CCC[C@H](Cn2cc(C3CC3)nn2)C1` was tested, and the “% Inhibition” value was -4% and the Z score was 0.64.
In the case of `Cn1nc(NC(=O)c2cc3c(cn2)OCCC3)cc1C1CC1`, the “% Inhibition” value is reported as -2% and the Z score is reported as 0.35.
For `Cc1cc(Cl)ccc1NC(=O)c1cc2n(n1)CCCN(Cc1ccc(F)cc1)C2=O`, the “% Inhibition” value was -7% and the Z score was 0.81.
`CC(C)c1cc(NC(=O)N2CCC[C@H](n3ccc(C(F)(F)F)n3)C2)no1` was tested, and the “% Inhibition” value was -3% and the Z score was 0.33.
With `O=C(c1ccc(Oc2ccccc2)o1)N1CCN(c2cnccn2)CC1` the “% Inhibition” value was -8% and the Z score was 0.8.
With `COC(=O)C(C)(C)CS(=O)(=O)N1CCCC2(CCCCC2)C1` the “% Inhibition” value was -6% and the Z score was 0.49.
For `CCC(NC(=O)Nn1cnnc1)(C(F)(F)F)C(F)(F)F`, the “% Inhibition” value was 26% and the Z score was -2.97.
With `Cc1ccc(N2C[C@H](NC(=O)C3(C#N)CCOCC3)[C@@H](C3CC3)C2)nn1` the “% Inhibition” value was -5% and the Z score was 0.75.
`CCc1ncoc1C(=O)N(C)CCc1ccccc1C` was tested, and the “% Inhibition” value was -3% and the Z score was 0.3.
In the case of `COC(=O)C12CCCC1CN(Cc1ccccc1NC(C)=O)C2` (centres undefined), the “% Inhibition” value is reported as 0% and the Z score is reported as 0.04.
`Cc1ccc(Oc2nc(-c3ccccc3)nc3ccsc23)cc1` was tested, and the “% Inhibition” value was -7% and the Z score was 0.96.
For `CCn1cc(Br)cc1C(=O)N(C)CC(F)(F)F`, the “% Inhibition” value was -7% and the Z score was 0.78.
For `COc1ccccc1OCC(=O)N(Cc1ccc(-c2ccc(Cl)cc2)o1)[C@H]1CCS(=O)(=O)C1`, the “% Inhibition” value was -24% and the Z score was 3.14.
`NS(=O)(=O)c1ccccc1CNC(=O)N1CC2(CCOCC2)C1` was tested, and the “% Inhibition” value was 6% and the Z score was -1.06.
`CCCC[C@@H](CN)NC(=O)c1cnn(-c2ncccc2Cl)c1C(F)(F)F` was tested, and the “% Inhibition” value was -7% and the Z score was 0.88.
For `Cc1cc(C(=O)N[C@H]2CCO[C@@H]2c2c(C)nn(C)c2C)cc(C)c1F`, the “% Inhibition” value was -6% and the Z score was 1.05.
`CCS(=O)(=O)NCCN1c2ccccc2OC[C@@H]1C` was tested, and the “% Inhibition” value was 1% and the Z score was -0.22.
In the case of `O=C(c1ncccc1F)N1CCC(O)(Cc2ccncc2)CC1`, the “% Inhibition” value is reported as -7% and the Z score is reported as 0.93.
With `CNS(=O)(=O)N1CCCc2ccccc2CC1` the “% Inhibition” value was -5% and the Z score was 0.88.
With `CCc1[nH]c2c(CNC(=O)[C@H](C)n3cncn3)cc(F)cc2c1C` the “% Inhibition” value was 12% and the Z score was -1.61.
